Publication PMC7819943, “Rice protein-binding microarrays: a tool to detect cis-acting elements near promoter regions in rice”
This is one part of the list.

Target: T1, OsWOX13 (Oryza sativa, UniProt Q5QMM3 1-267)
T1 sequence: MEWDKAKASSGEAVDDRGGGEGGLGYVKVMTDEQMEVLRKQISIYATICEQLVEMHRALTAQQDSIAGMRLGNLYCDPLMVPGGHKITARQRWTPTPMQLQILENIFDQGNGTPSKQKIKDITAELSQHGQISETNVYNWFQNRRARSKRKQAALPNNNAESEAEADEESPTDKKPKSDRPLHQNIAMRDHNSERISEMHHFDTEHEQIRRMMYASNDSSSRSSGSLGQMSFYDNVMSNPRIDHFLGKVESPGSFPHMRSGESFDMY
Assay: protein-binding microarray (RPBM); PBS, 2% BSA, 51.3 ng/ul salmon testes DNA, 50 uM zinc acetate, 200 nM TF, 25 C, 1 h; high values mean tight binding
Settings: protein: recombinant; tags: N-terminal polyhistidine and DsRed monomer fusion (pET32a); label: CyDye5-dUTP incorporated in the synthesized complementary strand; 3' TTTTT single-stranded linker to array surface; dsDNA, one strand shown
Outline: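 For the binding signal, per-feature fluorescence intensity was read in arbitrary units on an Axon 4000B scanner. Before scanning, a 2% BSA-blocked custom Agilent array made double-stranded with Cy5-dUTP was washed after 1 h at 25 °C with 200 nM protein and 50 µM zinc acetate. The proteins were Ni–NTA-purified transcription factors with N-terminal polyhistidine and DsRed fusions, expressed in E. coli BL21-CodonPlus.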

Sequence | binding signal
GACATAGATTACTTTTCATACAAGTCATCTATGATAATCCCGGAGTCACCTAGTGCAG | 4280 fluorescence intensity (a.u.)
TTCGGCCGATGATTTAACACATTATCAGCGTAGATGTACGCGGAGTCACCTAGTGCAG | 3790 fluorescence intensity (a.u.)
TATGATCAATGATTGAATCGATCGAGAAGGTTAGTCGTCGCGGAGTCACCTAGTGCAG | 48600 fluorescence intensity (a.u.)
CTAAAATAATTTTGCTATGGAATTGTATAGGTCGTATCAACGGAGTCACCTAGTGCAG | 4540 fluorescence intensity (a.u.)
CAAACTTTGCTGACTGAATTGGCTGTTCAATCTACTAATACGGAGTCACCTAGTGCAG | 3430 fluorescence intensity (a.u.)
GAGTAATTGGGAAATCTGTGATAAGGTATGAATCTTCCCTCGGAGTCACCTAGTGCAG | 41000 fluorescence intensity (a.u.)
AGATACTGGAACTACTCAATCATTGGCAAAAGAAAACGAACGGAGTCACCTAGTGCAG | 5970 fluorescence intensity (a.u.)
TGTAACTTTCATCCATCTAATTAAATTAAACGGTTATAAACGGAGTCACCTAGTGCAG | 10600 fluorescence intensity (a.u.)
GAAGATTGAGAAGAAGAAGATGCTAGAGCTAGTCGATCTCCGGAGTCACCTAGTGCAG | 4350 fluorescence intensity (a.u.)
GTATAATCAACTTTGATCAGTGATTACTACTTTCGAAGTGCGGAGTCACCTAGTGCAG | 20900 fluorescence intensity (a.u.)
CATATATTGGTGTTGTGTGTGGGTGGGTGGGGCGGTGCTTCGGAGTCACCTAGTGCAG | 7160 fluorescence intensity (a.u.)
GAAATTAGAGATGATGTGACTGAAAAGTTATGTGTGTATGCGGAGTCACCTAGTGCAG | 14100 fluorescence intensity (a.u.)
TCATAGATTTGGAGATTGTACTTGTATTTATGGGAAGGTCCGGAGTCACCTAGTGCAG | 5870 fluorescence intensity (a.u.)
ACACCAAAATTAAATTTTAAATTTTAGCTTATAAACATATCGGAGTCACCTAGTGCAG | 7300 fluorescence intensity (a.u.)
AGTAGTGATTAATCCATGATTAGCGTATGTGATGCTAAAGCGGAGTCACCTAGTGCAG | 43300 fluorescence intensity (a.u.)
GTTCCAAATTGAAGTTACAAGCCTATAGGCTCATCATAGGCGGAGTCACCTAGTGCAG | 6900 fluorescence intensity (a.u.)
AGAGGGGACTGGGGAGGGGAGGGGCGGCGCTCGCTGGCTTCGGAGTCACCTAGTGCAG | 4910 fluorescence intensity (a.u.)
TCCAGGGTTTGCTACTAGATTGATGGGTGTCAAAGTCCTTCGGAGTCACCTAGTGCAG | 6580 fluorescence intensity (a.u.)
TTACATTAGCAATTGATTGCTCTTATTTGACCATGATGTTCGGAGTCACCTAGTGCAG | 31500 fluorescence intensity (a.u.)
CCTTAAATTTTCCTAAATCCTTACCTACCGTCATTCTCTCCGGAGTCACCTAGTGCAG | 4710 fluorescence intensity (a.u.)
ATAAATTTCAGATCAAATTTGATGAATTTCGTATATCTTCCGGAGTCACCTAGTGCAG | 11600 fluorescence intensity (a.u.)

Sequence | binding signal
CTCTCAATCATTCTAATCGATAGCACTCGCCGCGGCGGCGCGGAGTCACCTAGTGCAG | 11400 fluorescence intensity (a.u.)
TTGAAAATTTAAATTTTGACCGATAAACATAAGCATAAGCCGGAGTCACCTAGTGCAG | 18100 fluorescence intensity (a.u.)
TGAAAATAATTTCGAATCATTCGGCATAGAGTTGGGGTGTCGGAGTCACCTAGTGCAG | 3830 fluorescence intensity (a.u.)
AAAACAAATTACATAATCCGCATGTAAACTGCGAGATGAACGGAGTCACCTAGTGCAG | 11300 fluorescence intensity (a.u.)
ACAAAATCATATTATTAGAATATATTATATTTTCGTACTGCGGAGTCACCTAGTGCAG | 3540 fluorescence intensity (a.u.)
AAGATATATTTATAATAAATGTAATTGCCAATGTACGTATCGGAGTCACCTAGTGCAG | 4580 fluorescence intensity (a.u.)
CCCGATGATTGGACGACCATATCAATGAGTCGTATGAAGGCGGAGTCACCTAGTGCAG | 52000 fluorescence intensity (a.u.)
CCTAATCTAATCTCCTGGAATAATGGTTTCTACTCGCGCACGGAGTCACCTAGTGCAG | 3730 fluorescence intensity (a.u.)
GGAGAACAAATTGAAATTGCTCCACCCTTTTGGCTAATGTCGGAGTCACCTAGTGCAG | 14600 fluorescence intensity (a.u.)
TATGATTTGATTGATTTCTGGATCAGATTGCGTCCCTTGCCGGAGTCACCTAGTGCAG | 38400 fluorescence intensity (a.u.)
TTCACCAATCTATCTATCTACCCTATAATTCACAACACATCGGAGTCACCTAGTGCAG | 7320 fluorescence intensity (a.u.)
GCATATCCAATTATCCATTGCCATTATAGCGAAAGCAGTACGGAGTCACCTAGTGCAG | 4420 fluorescence intensity (a.u.)
AGTGATGGAATTTAAAAGTCACCCCTACAAAATACAGAAACGGAGTCACCTAGTGCAG | 3330 fluorescence intensity (a.u.)
TAGGGAATATTACGCCATTAATTGGATTGTTTTGATTCGTCGGAGTCACCTAGTGCAG | 8130 fluorescence intensity (a.u.)
AATTAAATTTAATAGATTCGTCTCGCAGTTTACATGCGGACGGAGTCACCTAGTGCAG | 31700 fluorescence intensity (a.u.)
AGAGTGTAAATTACACTAGGATGACACATACTCCCTCCGTCGGAGTCACCTAGTGCAG | 4940 fluorescence intensity (a.u.)
AGTGGATTGAGGGTGATGGTGGCGGCGTATTGGGGAGGCACGGAGTCACCTAGTGCAG | 13500 fluorescence intensity (a.u.)
CAATCAATTTCATGATTATTTGATTTTGTACTTCAAGCAACGGAGTCACCTAGTGCAG | 26500 fluorescence intensity (a.u.)
GTTAAAACTATATGATTGTGTGAGTCAGCGCACTTTGCACCGGAGTCACCTAGTGCAG | 3730 fluorescence intensity (a.u.)
ATAATTAATTGCGAAAATCAGAGGCTGGCAGTATATATTCCGGAGTCACCTAGTGCAG | 24100 fluorescence intensity (a.u.)
TAGCAACTAATTTGTGTTTGATAGAATCTCTGGCAGCTTACGGAGTCACCTAGTGCAG | 16000 fluorescence intensity (a.u.)
